This passage reports binding signal (log2 fold change) results from article PMC5892938.

Some of the results follow. At the low end of the ranking, values are background and their order means little.

This assay concerns the target GST-SBP-SLBP (stem-loop binding protein) (UniProt Q14493). Put plainly: targeted RNA Bind-n-Seq.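 Note: DESeq read counts versus GST-SBP nonspecific binding control pulldown.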 Particulars: RBNS binding buffer: 25 mM Tris pH 7.5, 150 mM KCl, 3 mM MgCl2, 0.1% Tween, 0.5 mg/mL BSA, 1 mM DTT; 27 nM protein, 750 pM RNA pool; temperature not stated; high values mean tight binding.
As for “GGUCACGUCUCAAUCAACUCUAUGUCCAGGGAAACCCCUGGUUUUCUCAACAGCUCGCAGUCAAG”, the binding signal (log2 fold change) came to 0.0996.

Regarding “GGUCACGUCUCAAUCAACUCAUGUCCAGGAGUUUCCUCCUGCUUAUUCAACAGCUCGCAGUCAAG”, the binding signal (log2 fold change) worked out at 0.0646.

As for “GGUCACGUCUCAAUCAACUCUUCCUCCAGGGAAAUCCCUGGUAUAUUCAACAGCUCGCAGUCAAG”, the binding signal (log2 fold change) amounted to 0.00444.

On to “GGUCACGUCUCAAUCAACUCUUCUCCCAGGGAAAACCCUGGUAUAUUCAACAGCUCGCAGUCAAG”, for which the binding signal (log2 fold change) was -0.0345.

As to “GGUCACGUCUCAAUCAACUCUUUCCCCAGGGAAAUCCCUGGCAAACUCAACAGCUCGCAGUCAAG”, the binding signal (log2 fold change) is -0.131.

As to “GGUCACGUCUCAAUCAACUCAACUUCAGGAGUUUACUCCUGUAUAUUCAACAGCUCGCAGUCAAG”, the binding signal (log2 fold change) was -0.147.

With “GGUCACGUCUCAAUCAACUCAUCCUCCAGGGAAAACCCUGGUUUAUUCAACAGCUCGCAGUCAAG”, the binding signal (log2 fold change) amounted to 0.133.

On to “GGUCACGUCUCAAUCAACUCAUCGCCAGGAGUUUUCUCCUGCAAAUUCAACAGCUCGCAGUCAAG”, for which the binding signal (log2 fold change) was -0.0314.

With “GGUCACGUCUCAAUCAACUCUUCAGAGGGGGGGAAAACCCCUUUACCCUCAUUUUCAACAGCUCGCAGUCAAG”, the binding signal (log2 fold change) turned out to be 0.169.

Consider “GGUCACGUCUCAAUCAACUCUAUCGAGGGGGGGAAAACCCCUUUACCCUCCAAUUCAACAGCUCGCAGUCAAG”, for which the binding signal (log2 fold change) came to 0.0885.

As to “GGUCACGUCUCAAUCAACUCAAUUCCAGGAGUUUACUCCUGUUUUCUCAACAGCUCGCAGUCAAG”, the binding signal (log2 fold change) was 0.11.

For the sequence “GGUCACGUCUCAAUCAACUCUAUCGAGGGGGGGAAAACCCCUUUACCCUCACACUCAACAGCUCGCAGUCAAG”, the binding signal (log2 fold change) came out at 0.573.

With “GGUCACGUCUCAAUCAACUCAUCCCCAGGAGUUUUCUCCUGCAAACUCAACAGCUCGCAGUCAAG”, the binding signal (log2 fold change) is -0.235.

On to “GGUCACGUCUCAAUCAACUCAACUUCCAGGGAAAGCCCUGGCUAUUUCAACAGCUCGCAGUCAAG”, for which the binding signal (log2 fold change) was found to be 0.217.

As to “GGUCACGUCUCAAUCAACUCAUCCCCAGGAGUUUUCUCCUGUAAACUCAACAGCUCGCAGUCAAG”, the binding signal (log2 fold change) came out at 0.123.

As to “GGUCACGUCUCAAUCAACUCAAUUUCAGGAGUUUACUCCUGCAUAUUCAACAGCUCGCAGUCAAG”, the binding signal (log2 fold change) was -0.00674.

Regarding “GGUCACGUCUCAAUCAACUCAACGCCAGGAGUUUCCUCCUGCUAUUUCAACAGCUCGCAGUCAAG”, the binding signal (log2 fold change) is 0.0199.

“GGUCACGUCUCAAUCAACUCCAAAGAGGGGGGGAAAACCCCUUUGCCCUCCGUAUCAACAGCUCGCAGUCAAG”: the binding signal (log2 fold change) is -0.311.

Consider “GGUCACGUCUCAAUCAACUCAAUUCCCAGGGAAAACCCUGGCAUAUUCAACAGCUCGCAGUCAAG”, for which the binding signal (log2 fold change) worked out at 0.125.

As for “GGUCACGUCUCAAUCAACUCUUCCUCCAGGGAAAUCCCUGGCAUUUUCAACAGCUCGCAGUCAAG”, the binding signal (log2 fold change) is 0.0961.

With “GGUCACGUCUCAAUCAACUCUUUUUCAGGAGUUUACUCCUGUUUAUUCAACAGCUCGCAGUCAAG”, the binding signal (log2 fold change) is 0.00319.

“GGUCACGUCUCAAUCAACUCUAUCCCCAGGGAAAUCCCUGGCAAUCUCAACAGCUCGCAGUCAAG”: the binding signal (log2 fold change) came to 0.11.

Regarding “GGUCACGUCUCAAUCAACUCAUCUCCAGGAGUUUUCUCCUGCAUACUCAACAGCUCGCAGUCAAG”, the binding signal (log2 fold change) turned out to be 0.147.

As for “GGUCACGUCUCAAUCAACUCUACUCCCAGGGAAACCCCUGGCUUUUUCAACAGCUCGCAGUCAAG”, the binding signal (log2 fold change) was -0.21.

Turning to “GGUCACGUCUCAAUCAACUCAACUCCAGGAGUUUGCUCCUGCAUUCUCAACAGCUCGCAGUCAAG”, the binding signal (log2 fold change) worked out at 0.13.

Regarding “GGUCACGUCUCAAUCAACUCAUUUUCCAGGGAAAACCCUGGCGUAUUCAACAGCUCGCAGUCAAG”, the binding signal (log2 fold change) is -0.0201.

In the case of “GGUCACGUCUCAAUCAACUCUAGUCCCAGGGAAAUCCCUGGCUUUUUCAACAGCUCGCAGUCAAG”, the binding signal (log2 fold change) was 0.0712.

For the sequence “GGUCACGUCUCAAUCAACUCCCUAGAGGGGGGGAAAACCCCUUUACCCUCAUUUUCAACAGCUCGCAGUCAAG”, the binding signal (log2 fold change) was 0.2.

Regarding “GGUCACGUCUCAAUCAACUCUUCGCCCAGGGAAAACCCUGGUUUAUUCAACAGCUCGCAGUCAAG”, the binding signal (log2 fold change) was -0.012.

Take “GGUCACGUCUCAAUCAACUCAUCCUCAGGAGUUUACUCCUGCUUAGUCAACAGCUCGCAGUCAAG”: the binding signal (log2 fold change) stood at 0.139.

Take “GGUCACGUCUCAAUCAACUCACUAGAGGGGGGGAAAACCCCUUUACCCUCGUCCUCAACAGCUCGCAGUCAAG”: the binding signal (log2 fold change) is -0.285.

Take “GGUCACGUCUCAAUCAACUCUUUUUCAGGAGUUUCCUCCUGCAUAUUCAACAGCUCGCAGUCAAG”: the binding signal (log2 fold change) is -0.0124.

Consider “GGUCACGUCUCAAUCAACUCAUUUUCAGGAGUUUUCUCCUGCUUUCUCAACAGCUCGCAGUCAAG”, for which the binding signal (log2 fold change) was determined as 0.107.

Regarding “GGUCACGUCUCAAUCAACUCUACGGCAGGAGUUUACUCCUGGAAUCUCAACAGCUCGCAGUCAAG”, the binding signal (log2 fold change) was 0.318.

Regarding “GGUCACGUCUCAAUCAACUCAUCUCCCAGGGAAAUCCCUGGUAUACUCAACAGCUCGCAGUCAAG”, the binding signal (log2 fold change) turned out to be 0.192.

Regarding “GGUCACGUCUCAAUCAACUCAUCUUCCAGGGAAAGCCCUGGCAUUCUCAACAGCUCGCAGUCAAG”, the binding signal (log2 fold change) worked out at 0.0623.

Consider “GGUCACGUCUCAAUCAACUCAUUCUCAGGAGUUUGCUCCUGCAUAUUCAACAGCUCGCAGUCAAG”, for which the binding signal (log2 fold change) was -0.067.
